According to PubChem BioAssay AID411 (National Center for Advancing Translational Sciences (NCATS), 2006):
Among all 72,000 compounds or so, about 1,600 (2.2%) were called active. This list was built around the results that the source calls inconclusive (neither active nor inactive); the mix of calls is not that of the screen. Calls come from the whole dose curve; as a rule, active = well fitted inhibition curve with a large enough effect; inconclusive = small, poorly fitted or top-dose-only effect; inactive = flat fitted curve, though single readings scatter. Potencies of inconclusive entries are left out as doubtful fits.

What follows are compounds tested against Luciferin 4-monooxygenase (Photinus pyralis) (UniProt P08659) (assay: qHTS Assay for Inhibitors of Firefly Luciferase). Conditions: purified firefly luciferase, luminescence, 8 min; series mostly up to 57.1 µM.
Chain of UniProt P08659 (P08659 whole entry, looked up): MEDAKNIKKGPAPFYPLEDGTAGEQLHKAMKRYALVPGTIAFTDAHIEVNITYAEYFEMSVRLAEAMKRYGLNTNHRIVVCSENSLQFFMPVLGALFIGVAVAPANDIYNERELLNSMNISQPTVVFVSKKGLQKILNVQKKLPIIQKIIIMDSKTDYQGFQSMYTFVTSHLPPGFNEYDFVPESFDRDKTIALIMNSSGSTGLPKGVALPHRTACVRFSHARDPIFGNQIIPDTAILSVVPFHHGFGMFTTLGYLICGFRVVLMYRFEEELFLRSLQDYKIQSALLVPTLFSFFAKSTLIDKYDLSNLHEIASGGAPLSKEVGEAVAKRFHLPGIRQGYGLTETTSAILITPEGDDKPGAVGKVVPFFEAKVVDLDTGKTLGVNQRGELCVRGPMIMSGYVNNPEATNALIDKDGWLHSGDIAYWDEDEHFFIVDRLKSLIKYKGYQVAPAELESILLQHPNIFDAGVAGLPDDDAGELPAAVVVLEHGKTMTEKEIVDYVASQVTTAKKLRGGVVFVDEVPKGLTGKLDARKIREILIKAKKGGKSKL
Description: To aid in the interpretation of high-throughput screening (HTS) results derived from luciferase-based assays, we used quantitative HTS, an approach that defines the concentration-response behavior of each library sample, to profile the ATP-dependent luciferase from Photinus pyralis against more than 72 000 samples. Luciferase (PKLight, Cambrex Corporation) was assayed for its ability to generate light using ATP and luciferin as substrates. The ATP concentration in the assay (10 uM) was within the linear range of enzyme activity for the assay conditions used. See following reference for further details: [1] Auld DS, Southall NT, Jadhav A, Johnson RL, Diller DJ, Simeonov A, Austin CP, Inglese J. Characterization of chemical libraries for luciferase inhibitory activity. J Med Chem. 2008 Apr 24;51(8):2372-86. Auld DS, Zhang YQ, Southall NT, Rai G, Landsman M, Maclure J, Langevin D, Thomas CJ, Austin CP, Inglese J. A Basis for Reduced Chemical Library Inhibition of Firefly Luciferase Obtained from Directed Evolution. J. Med. Chem., 2009, 52 (5), pp 1450#1458 [3] Auld DS, Thorne N, Nguyen DT, Inglese J. A specific mechanism for nonspecific activation in reporter-gene assays. ACS Chem Biol. 2008 Aug 15;3(8):463-70. Auld DS, Thorne N, Maguire WF, Inglese J. Mechanism of PTC124 activity in cell-based luciferase assays of nonsense codon suppression. Proc Natl Acad Sci U S A. 2009 Mar 3;106(9):3585-90. Inglese J, Auld DS, Jadhav A, Johnson RL, Simeonov A, Yasgar A, Zheng W, Austin CP. Quantitative high-throughput screening: a titration-based approach that efficiently identifies biological activities in large chemical libraries. Proc Natl Acad Sci U S A. 2006 Aug 1;103(31):11473-8.
Four uL of substrate mix (final concentration, 50 mM imidazole pH 7.2, 50 mM KCl, 7 mM MgCl2, 10 uM ATP, 0.01% Tween 20, 0.05% BSA) was dispensed into white 1536 well plates. Twenty-three nL of compound was delivered by a pin tool and 2 uL of luciferase detector mix (PKLight, Cambrex) was added. Following 8-minute incubation at ambient temperature, luminescence was measured by a ViewLux (Perkin Elmer) at 5 seconds exposure/plate.
% is set by controls: 0 for no effect and ±100 for the full control effect; potency is the fitted concentration of half-maximal effect; tags give direction and shape of the fitted curve.
Note: nearly all actives have a fitted effect of over 40% in size.

Question: Which Potency does the source give for Cc1nnc(SCc2ccc(C(=O)c3ccc(Cl)cc3)o2)n1-c1ccccc1 here?
Answer: Its Potency is active: 12.6 µM.

Question: With Fc1ccc(-c2nnc(NC3=NCCCCC3)o2)cc1 as the compound, how does the Potency read?
Answer: The Potency was active: 2.51 µM.

Question: COc1cc([C@@H]2c3cc4c(cc3[C@@H](O[C@@H]3O[C@H]5CO[C@@H](C)O[C@@H]5[C@@H](O)[C@H]3O)[C@@H]3COC(=O)[C@@H]23)OCO4)cc(OC)c1O was tested. Which Potency did it give?
Answer: Its Potency is inconclusive [inhibitor, partial curve].

Question: For O=C1CC(N2CCN(Cc3ccccc3)CC2)C(=O)N1c1ccccc1 (centres undefined), which Potency is on record?
Answer: Its Potency is “inactive”.

Question: Which Potency does the source give for C=CCn1c(NCc2ccc(N(C)C)cc2)nc2ccccc21 here?
Answer: Its Potency is inconclusive [inhibitor, single point].

Question: For O=C(CCC1CCCCC1)N1CCN(Cc2ccc3c(c2)OCO3)CC1, which Potency is on record?
Answer: The Potency was “inactive”.

Question: For CCCn1nnc(NC(=O)c2ccc(-c3ccccc3)cc2)n1, which Potency is on record?
Answer: The Potency was inconclusive [inhibitor, partial curve].

Question: With c1ccc(C(c2ccccc2)N2CCCC3(CCNCC3)C2)cc1 as the compound, how does the activity change, negative = inhibition read?
Answer: The activity change, negative = inhibition was inactive: 0.571% [at 11.4 µM].

Question: With COCC(C)NC(=O)c1noc2c1CCc1cc(OC)ccc1-2 (centres undefined) as the compound, how does the Potency read?
Answer: Its Potency is inconclusive [inhibitor, partial curve].

Question: Which Potency does the source give for COc1ccc2nc(N3CCCC(C(=O)NCCCN4CCN(C)CC4)C3)sc2c1 (centres undefined) here?
Answer: The Potency was inconclusive [inhibitor, partial curve].

Question: With O=C(CN1CCN(C2CCCCC2)CC1)c1ccc2cc[nH]c2c1 as the compound, how does the Potency read?
Answer: The Potency was “inactive”.

Question: Which Potency does the source give for CCCCc1ccc(NC(=O)C2CCCO2)cc1 (centres undefined) here?
Answer: The Potency was inconclusive [inhibitor, single point].

Question: How did the Potency turn out when Cc1cccc(-n2ncc3c(Nc4ccc(F)cc4)ncnc32)c1 was run?
Answer: Its Potency is inconclusive [inhibitor, partial curve].

Question: How did the Potency turn out when c1ccc(-c2nc(-c3ccco3)cs2)nc1 was run?
Answer: Its Potency is inconclusive [inhibitor, single point].

Question: With Cc1cc(C)nc(NS(=O)(=O)c2ccc(NC(=O)c3ccc4c(c3)OCO4)cc2)n1 as the compound, how does the Potency read?
Answer: Its Potency is “inactive”.

Question: For Cc1nc2cc(NC(=O)Nc3nccs3)ccc2n1C, which Potency is on record?
Answer: Its Potency is active: 6.31 µM.

Question: For COc1ccc(CCNC(=O)c2cc3ccccn3n2)c(OC)c1OC, which Potency is on record?
Answer: The Potency was “inactive”.

Question: With CN1CCN(CCc2ccc(Cl)c(Cl)c2)CC1 as the compound, how does the Potency read?
Answer: The Potency was inconclusive [inhibitor, partial curve].

Question: With CCOc1ccc(NC(=O)Nc2cc(C)ccc2OC)cc1 as the compound, how does the Potency read?
Answer: Its Potency is inconclusive [inhibitor, partial curve].

Question: With CC1CCC/C(=C\Nc2ccc3c(c2)OCO3)C1=O (centres undefined) as the compound, how does the Potency read?
Answer: Its Potency is active: 10 µM.

Question: For CC(c1ccco1)N(C(=O)COc1ccc(Cl)cc1Cl)c1ccccn1 (centres undefined), which Potency is on record?
Answer: Its Potency is inconclusive [inhibitor, single point].

Question: How did the Potency turn out when c1ccc(-c2nnc(-c3ccccn3)nn2)nc1 was run?
Answer: Its Potency is inconclusive [inhibitor, partial curve].

Question: How did the Potency turn out when O=C(NCCOc1ccccc1)c1ccc2c(c1)OCO2 was run?
Answer: Its Potency is active: 6.31 µM.

Question: How did the Potency turn out when Clc1ccccc1-c1nc(-c2ccccc2)n[nH]1 was run?
Answer: Its Potency is active: 15.8 µM.

Question: CC1N(C)c2cc(NC(=O)c3ccco3)ccc2C1(C)C (centres undefined) was tested. Which Potency did it give?
Answer: The Potency was active: 15.8 µM.

Question: CCn1c(COc2ccccc2)nnc1SCC(=O)NC1CCCCC1 was tested. Which Potency did it give?
Answer: Its Potency is “inactive”.

Question: With CC1=CC(C)(C)N2C(=O)C3(C(C#N)=C(N)Oc4cc(O)ccc43)c3cccc1c32 (centres undefined) as the compound, how does the Potency read?
Answer: Its Potency is “inactive”.

Question: With CC(C)C(=O)Nc1cccc(-c2cn3ccsc3n2)c1 as the compound, how does the Potency read?
Answer: Its Potency is inconclusive [inhibitor, partial curve].

Question: With O=C(NCCCN1CCN(Cc2ccccc2)CC1)C1CCN(c2nnc(-n3cccc3)s2)CC1 as the compound, how does the Potency read?
Answer: Its Potency is inconclusive [inhibitor, single point].

Question: For O=C(NCc1ccco1)c1ccc2ccccc2c1, which Potency is on record?
Answer: The Potency was inconclusive [inhibitor, single point].

Question: For CC1CCN(C(=O)COC(=O)c2n[nH]c3ccccc23)CC1, which Potency is on record?
Answer: Its Potency is inconclusive [inhibitor, single point].

Question: With COc1cc(OC)c(NC(=O)CCc2nc(-c3ccc(C)cc3)no2)cc1Cl as the compound, how does the Potency read?
Answer: The Potency was inconclusive [inhibitor, single point].

Question: O=C(CCn1c(=S)[nH]c2cc3c(cc2c1=O)OCO3)N1CCN(C2CCCCC2)CC1 was tested. Which Potency did it give?
Answer: Its Potency is “inactive”.

Question: CCN(CC)S(=O)(=O)c1cccc(-c2nc3n(n2)Cc2ccccc2-3)c1 was tested. Which Potency did it give?
Answer: The Potency was inconclusive [inhibitor, partial curve].

Question: With Cc1cc(C(=O)CN2C(=O)C3CC=CCC3C2=O)c(C)n1-c1ccccc1 (centres undefined) as the compound, how does the Potency read?
Answer: The Potency was active: 3.98 µM.

Question: Which Potency does the source give for COc1ccc(Nc2nccc3c2nnn3C)cc1 here?
Answer: The Potency was inconclusive [inhibitor, partial curve].

Question: Which activity change, negative = inhibition does the source give for Cc1cc([N+](=O)[O-])c(C)c(Br)c1C here?
Answer: The activity change, negative = inhibition was inactive: 1.61% [at 11.4 µM].

Question: With O=C(NCCSCc1ccco1)Nc1ccc(Cl)cc1 as the compound, how does the Potency read?
Answer: The Potency was inconclusive [inhibitor, single point].

Question: With CCS(=O)(=O)Nc1cc(-c2nc3cccnc3s2)ccc1C as the compound, how does the Potency read?
Answer: The Potency was inconclusive [inhibitor, partial curve].

Question: Which Potency does the source give for O=C(Nc1ccc2c(c1)ncn2C1CCCCC1)c1ccco1 here?
Answer: Its Potency is inconclusive [inhibitor, single point].

Question: For O=C(CSc1nnc(-c2ccco2)n1Cc1ccccc1)NC(=O)NCc1ccco1, which Potency is on record?
Answer: Its Potency is inconclusive [inhibitor, full curve].

Question: How did the Potency turn out when Cc1ccc(Nc2nc3nonc3[nH]c2=O)cc1C was run?
Answer: Its Potency is inconclusive [inhibitor, single point].

Question: With CCOc1ccc(-c2[nH]ncc2Oc2ccccc2OC)c(O)c1 as the compound, how does the Potency read?
Answer: The Potency was “inactive”.

Question: How did the Potency turn out when COc1cccc(-c2cc(C(=O)N3CCN(c4ncccn4)CC3)c3ccccc3n2)c1 was run?
Answer: Its Potency is active: 6.31 µM.

Question: Which Potency does the source give for CCc1ccc(-c2cn3nc(C)c(C)nc3n2)cc1 here?
Answer: Its Potency is active: 1 µM.

Question: How did the Potency turn out when CCOC(=O)c1sc(-c2ccccc2)cc1N was run?
Answer: The Potency was inconclusive [inhibitor, single point].

Question: For O=C(NCC1CCCO1)c1cc(-c2ccccc2)on1 (centres undefined), which Potency is on record?
Answer: The Potency was “inactive”.

Question: Which activity change, negative = inhibition does the source give for CC(C)CN1CCCC2(CCN(C(=O)c3cccn3C)CC2)C1 here?
Answer: Its activity change, negative = inhibition is inactive: 0.624% [at 11.4 µM].

Question: How did the Potency turn out when CCOC(=O)c1sc(NC(=O)C2CC2)cc1C was run?
Answer: The Potency was inconclusive [inhibitor, partial curve].
